Data published in publication PMC4336329 (PLoS ONE, 2015).
Screen size: about 310,000 compounds; about 14,000 (4.5%) showed an effect of 50% or more. The effect is printed as a negative number. This is one part of the list.
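Further: peak tail current of the secondary pulse compared with the same well before compound.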

These compounds were tested against human ether-à-go-go-related gene (hERG) potassium channel (human, UniProt Q12809) (assay: primary screen, population patch clamp on CHO cells stably expressing hERG).
human ether-à-go-go-related gene (hERG) potassium channel, sequence (Q12809 whole entry, looked up): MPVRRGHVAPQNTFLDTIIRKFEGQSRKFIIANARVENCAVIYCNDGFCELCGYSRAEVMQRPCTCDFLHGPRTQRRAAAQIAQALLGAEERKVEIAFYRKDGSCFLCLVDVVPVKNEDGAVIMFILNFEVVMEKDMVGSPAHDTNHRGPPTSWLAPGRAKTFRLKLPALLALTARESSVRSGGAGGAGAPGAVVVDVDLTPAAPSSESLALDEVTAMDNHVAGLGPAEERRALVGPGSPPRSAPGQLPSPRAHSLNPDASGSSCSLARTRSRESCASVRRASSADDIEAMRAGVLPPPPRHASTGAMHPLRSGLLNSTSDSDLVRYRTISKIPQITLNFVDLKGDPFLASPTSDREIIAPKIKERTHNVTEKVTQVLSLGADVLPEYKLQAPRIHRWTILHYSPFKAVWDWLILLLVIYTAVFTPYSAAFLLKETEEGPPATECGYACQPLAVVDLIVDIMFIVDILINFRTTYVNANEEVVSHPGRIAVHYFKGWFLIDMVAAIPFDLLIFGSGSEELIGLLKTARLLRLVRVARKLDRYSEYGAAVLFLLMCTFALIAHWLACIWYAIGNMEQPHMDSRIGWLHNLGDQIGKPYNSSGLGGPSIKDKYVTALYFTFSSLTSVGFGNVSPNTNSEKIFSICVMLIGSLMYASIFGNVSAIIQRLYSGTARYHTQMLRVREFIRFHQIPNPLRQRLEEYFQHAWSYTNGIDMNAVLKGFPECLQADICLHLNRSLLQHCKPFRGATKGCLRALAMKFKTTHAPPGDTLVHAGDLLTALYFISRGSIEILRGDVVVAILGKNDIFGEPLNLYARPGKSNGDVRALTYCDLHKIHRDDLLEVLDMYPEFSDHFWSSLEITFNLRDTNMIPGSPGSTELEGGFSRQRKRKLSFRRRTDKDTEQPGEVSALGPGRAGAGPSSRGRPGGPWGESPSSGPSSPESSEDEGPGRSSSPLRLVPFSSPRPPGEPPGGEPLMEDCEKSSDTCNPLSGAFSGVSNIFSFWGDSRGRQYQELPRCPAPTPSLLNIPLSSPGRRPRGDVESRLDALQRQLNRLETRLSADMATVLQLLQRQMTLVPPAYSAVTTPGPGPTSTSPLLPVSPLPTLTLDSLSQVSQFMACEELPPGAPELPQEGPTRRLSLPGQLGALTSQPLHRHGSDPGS
`Cc1cc(C(=O)CSc2nnc(Cc3ccccc3)o2)c(C)n1Cc1ccc2c(c1)OCO2` was tested, and the “hERG current change (%, negative = inhibition) at 10uM” value was 1.62%. For `CCOc1ccccc1N(CC)C(=O)c1nn(C)c2c1CSc1ccccc1-2`, the “hERG current change (%, negative = inhibition) at 10uM” value was 4.53%. `CCn1c(/C=C2\C(=O)Nc3ccccc32)nc2ccccc2c1=O` was tested, and the “hERG current change (%, negative = inhibition) at 10uM” value was -18.3%. With `CCCCOCCCNC(=O)Cc1cccs1` the “hERG current change (%, negative = inhibition) at 10uM” value was 1.1%. With `CCCCNC(=S)NCc1ccc2[nH]c(C)cc2c1` the “hERG current change (%, negative = inhibition) at 10uM” value was -17.2%. In the case of `OCCN1CCN(c2ncnc3c2c(-c2ccccc2)cn3-c2ccc(Br)cc2)CC1`, the “hERG current change (%, negative = inhibition) at 10uM” value is reported as -15.2%. For `CC(=O)N1CC2(C)CN(C(C)=O)CC(C)(C1)C2O` (stereo not drawn), the “hERG current change (%, negative = inhibition) at 10uM” value was 4.9%. With `O=C(NCCCN1CCOCC1)C1CC(=O)N(CCc2ccccc2)C1` (stereo not drawn) the “hERG current change (%, negative = inhibition) at 10uM” value was 9.08%. In the case of `CCCCn1c(-c2cccnc2)nc2cc3[nH]c(=O)c(C(C)C)nc3cc21`, the “hERG current change (%, negative = inhibition) at 10uM” value is reported as -50.4%. `Cc1ccc(C)c(NC(=S)NNC(=O)c2csc3c2CCCC3)c1` was tested, and the “hERG current change (%, negative = inhibition) at 10uM” value was -7.78%. With `CCOC(=O)C1=CC[C@H]2c3c(c4ccccc4n3C)C[C@H]1N2C` the “hERG current change (%, negative = inhibition) at 10uM” value was 3.88%. `Nc1c(C(=O)c2ccc(Cl)cc2)sc2nc3c(cc12)CCC3` was tested, and the “hERG current change (%, negative = inhibition) at 10uM” value was 12%. For `COc1ccc(C2Nc3ccccc3C(=O)N2NS(=O)(=O)c2ccccc2)cc1OC` (stereo not drawn), the “hERG current change (%, negative = inhibition) at 10uM” value was 13.5%. With `CN(C(=O)c1cccs1)c1ccc(OCC(=O)Nc2ccc(C(=O)O)cc2)cc1` the “hERG current change (%, negative = inhibition) at 10uM” value was 8.12%. `CCNS(=O)(=O)c1ccc(NC(=O)Nc2cc(C)ccc2OC)cc1` was tested, and the “hERG current change (%, negative = inhibition) at 10uM” value was -8.52%. With `O=C(Nc1cccc([N+](=O)[O-])c1)NC1CCCCCCC1` the “hERG current change (%, negative = inhibition) at 10uM” value was 6.91%. In the case of `O=C(O)C(=O)O.OCCNCCCOc1ccc(Cl)cc1Br`, the “hERG current change (%, negative = inhibition) at 10uM” value is reported as -54.9%. `O=C(CSc1n[nH]c(=O)[nH]c1=O)c1cccc([N+](=O)[O-])c1` was tested, and the “hERG current change (%, negative = inhibition) at 10uM” value was 20.2%. With `NCCCC[C@@H]1NC(=O)[C@H](CCC(=O)O)NC(=O)c2cc([N+](=O)[O-])cc(I)c2NCC[C@@H](C(N)=O)NC1=O` the “hERG current change (%, negative = inhibition) at 10uM” value was 23%. With `CC(=O)Nc1ccc(OC(=O)CC2SC(=O)NC2=O)cc1` (stereo not drawn) the “hERG current change (%, negative = inhibition) at 10uM” value was -5.43%. For `COc1ccc(NC(=O)CSc2nnc(C)n2C2CC2)cc1S(=O)(=O)N1CCOCC1`, the “hERG current change (%, negative = inhibition) at 10uM” value was 20.8%. In the case of `COC(=O)c1cccc(NC(=O)/C(=C\c2ccccc2)NC(=O)c2ccccc2Cl)c1`, the “hERG current change (%, negative = inhibition) at 10uM” value is reported as 6.44%. For `Cc1ccc(CN(C(=O)c2csnn2)C(C(=O)NC2CCCC2)c2ccccn2)cc1` (stereo not drawn), the “hERG current change (%, negative = inhibition) at 10uM” value was -4.3%. With `C/C(CC(=O)Nc1cccc(Cl)c1Cl)=N\NC(=O)c1ccccc1Br` the “hERG current change (%, negative = inhibition) at 10uM” value was -3.56%.
